Source: publication PMC12136788
The list shows a part of the results.

B1: chr11:9429001:9429102:+|CDS|ENSG00000205339|msi1_unk|total|mutant (ssRNA)
RNA: GGGAGUUCUACAGUCCGACGAUCGGUACUUCACUAUUUUUGUGAAGUGAAGUUCAAAAGUGAUCAGAACCUUCAAACAGCCUCCGAGCUAACAAGAAGAUGUCUGAUUGAUGACCGAGAAAUGCCUGUGAAAGUGGAAGCUGCCAACAGAGGAUUGAGCAUCA
B2: ENSG00000109805:stop:overlap|stop_codon|ENSG00000109805|stop_codon|NA|stop_codon (ssRNA)
RNA: GGGAGUUCUACAGUCCGACGAUCCCGCAGCACUAGAAAAAAGUAAACUUAACCUUGCCCAAUUUCUCAAUGAAGAUCUAAGUUAGGAAAGACGAUGGAGGUGGAAUCCUUUAAGAUUAUGUCCAGUUAUUUGCUUUAAUAAAGCAACAGAGGAUUGAGCAUCA
B3: chrX:40073105:40073212:-|CDS|ENSG00000183337|unk|total|mutant (ssRNA)
RNA: GGGAGUUCUACAGUCCGACGAUCCUACCAAGAUGCCCUGGGGUUGGGCAUGGUGCAUCCCAUGUUGAUACCACACACGCCCACCGAGAUUACUAAAGAGGAGAAACCAGAGAGGAGAUCCCGGUCCCAUGAGAGAGCCCGUUACAACAGAGGAUUGAGCAUCA
B4: chr12:54395726:54395827:-|3pUTR|ENSG00000161638|msi1_unk|FALSE|overlapping (ssRNA)
RNA: GGGAGUUCUACAGUCCGACGAUCAAGAACACUAACUAUGCAUGGUGCCCCAGGACCAGCUCAGGACAGAUGCCACACAAGGAUAGAUGCUGGCCCAGGGCCCAGAGCCCAGCUCCAAGGGGAAUCAGAACUCAAAUGGGGCCACAACAGAGGAUUGAGCAUCA
B5: chr11:49981574:49982501:-|CDS|ENSG00000221954|control|control|control (ssRNA)
RNA: GGGAGUUCUACAGUCCGACGAUCGAACAAUAGCUUGGAGGGGAGGUGUAAAGCCCUCUCCACCUGUAUUUCUCACAUCAUAGUAGUUGUCUUAUUCUUUGUGCCCUGUAUAUUUGUGUAUCUGCGCUCAGUGACCACUCUGCCCAACAGAGGAUUGAGCAUCA
B6: chr19:4409044:4409156:+|CDS|ENSG00000167670|unk|total|mutant (ssRNA)
RNA: GGGAGUUCUACAGUCCGACGAUCCUGUCAUGUGGGUUCUGACACCGACUUCCGACCGAAACUUGUCAACGGGAAGGGUCCCUCCGAUAACUUUUUAAGAAACCGAAUCGAAACCAGUAUUGGCCAGAGCACAGUCAUCAUUGACAACAGAGGAUUGAGCAUCA
B7: chr3:120395571:120395798:-|3pUTR|ENSG00000163430|msi1|FALSE|unique (ssRNA)
RNA: GGGAGUUCUACAGUCCGACGAUCUGGUUCUGAUCAUUGGUCCAGAGGGGAGAUAGGUUCCUGUGAUUUUUCCUUCUUCUCUAUAGAAUAAAUGAAAUCUUGUUACUAGAACAAGAAAUGUCAGAUGGCCAAAAACAAGAUGACCAACAGAGGAUUGAGCAUCA
B8: chr13:32776882:32776983:+|3pUTR|ENSG00000083642|unk|FALSE|unique (ssRNA)
RNA: GGGAGUUCUACAGUCCGACGAUCAAAGUGUUUUGAAUUGUGUCUUAAUCUCUCCAUAUUCAACUAUUCUUCAUUUACAACAAUAGUGACACCAGUAAUUAUGAGAGGCUGUCAUAUAUCAAAGCAGCUCAGGUGGGAUCAACACAACAGAGGAUUGAGCAUCA
B9: chr1:162599429:162599460:+|3pUTR|ENSG00000117143|msi1_unk|FALSE|overlapping (ssRNA)
RNA: GGGAGUUCUACAGUCCGACGAUCGGUAUUUGAACCAGAUACCAAGUUUUGUUUGCCACGAUAGGAAUAGCUUUUAUUUUUGAUAGACCAACUGUGAACCUACAAGACGUCUUGGACAACUGAAGUUUAAAUAUCCACAGGGUUCAACAGAGGAUUGAGCAUCA
B10: chr9:127733218:127733560:-|CDS|ENSG00000160404|control|control|control (ssRNA)
RNA: GGGAGUUCUACAGUCCGACGAUCGAGGUUCAGCUCUACAGCCUUAGCCUGUGCUCCCAGCAGAAUCCAGUUCCCCAUGGGCUUAGCUGGGCUUUCCCAGUGCCCUCCGCCACUCUCAGAGAUGACAUUGUCAUUCCGCCUGGUCAACAGAGGAUUGAGCAUCA
B11: chr2:9585027:9585123:-|3pUTR|ENSG00000134308|msi1_unk|total|mutant (ssRNA)
RNA: GGGAGUUCUACAGUCCGACGAUCGGAAAACUUCAUUCCUUGAUUUGUGUUUGUCUUGGCCUUCCUGGUGUGCAGUACUGCUGCCGAAAAGUAUUAACCGCUUCAUUUCAUAUAAACAUAAGUAACUCCCAAACACUUAUGCCGCAACAGAGGAUUGAGCAUCA
B12: chr2:216672581:216672718:-|3pUTR|ENSG00000115461|msi1|total|mutant (ssRNA)
RNA: GGGAGUUCUACAGUCCGACGAUCCACUCCACCAGUCCCCGGUCGCCAGCCGGAGUCUCCUCUCUACCGCCACUGUCACACCGCCGCCCACAUGGACCGCACAGUUGUCAGACAAGAUUCCUUCAGAUUCCGAGUUGCCUACCGCAACAGAGGAUUGAGCAUCA
B13: chr20:54218986:54219149:+|CDS|ENSG00000101132|unk|FALSE|unique (ssRNA)
RNA: GGGAGUUCUACAGUCCGACGAUCAAAUUUGCAAGAAGAAAUUGACGCCUUAGAAUCCAGAGUGGAAUCAAUUCAGCGAGUGUUAGCAGAUUUGAAAGUUCAGUUGUAUGCAAAAUUCGGGAGCAACAUAAACCUUGAAGCUGACAACAGAGGAUUGAGCAUCA
B14: chr13:19993219:19993350:+|CDS|ENSG00000121741|unk|total|mutant (ssRNA)
RNA: GGGAGUUCUACAGUCCGACGAUCUGAUGAUGAUGUUGUUUUUAUCGAACCUGUACAACCUCCCCCACCUUCUGUACCAGUGGCCGCUGAUCAAAGAACCAUAACAUUUACAUCAUCAAAAAAUGAAGAACUACAAGGAAAUGACAACAGAGGAUUGAGCAUCA
B15: chr6:43012266:43012370:-|3pUTR|ENSG00000124733|unk|FALSE|bound_elsewhere (ssRNA)
RNA: GGGAGUUCUACAGUCCGACGAUCGAGACCCACUUUAUUCAGUUCUGUACAUAUGGGGACAUCGGUCCAAGCCCAACCCACCUUAGCAUGUAUCACUCUGUGGAGAAUAAAGCACCCUAUGUACACAGCCAAAAGCCGCACUGCCAACAGAGGAUUGAGCAUCA
B16: chr17:65014400:65014519:-|CDS|ENSG00000120063|unk|FALSE|unique (ssRNA)
RNA: GGGAGUUCUACAGUCCGACGAUCAAACAAGACAGACUUGCUUGAGGAGAAGGUGCAAAUUGUGAGCAUCAAAGACUAUUUCCUAGAAUUUGAAGGGGAUCCCCACUGCUUAAGAGACGUCCAAAAAUUCCUGGUGGAAUGUUUCAACAGAGGAUUGAGCAUCA
B17: chr1:17068045:17068226:-|3pUTR|ENSG00000117115|msi1|FALSE|unique (ssRNA)
RNA: GGGAGUUCUACAGUCCGACGAUCCUCCUUCCACUGCCUUGACUUUCUUCCUUUUUAUUCCUGGUGCCAUCUGUCCAGGCAGCUAGACAAGAACUUGUUCGCCAGCAGCCAGAUUCAGGCCUUCCCAGGGGCAUAAUAAGUGACCAACAGAGGAUUGAGCAUCA
B18: chr1:93361585:93361687:+|3pUTR|ENSG00000117505|unk|FALSE|unique (ssRNA)
RNA: GGGAGUUCUACAGUCCGACGAUCUUUAACUUGUAGUUAUAGUUUACUUAUUGUUUUUAGAAUUACUUUUACAUUUUCCCAACUAGAUGGCCUAGAGUCCAACAUUACCUUUUGAGAUGACAUUAUUGUCUCCAUAAUUGAGUGCAACAGAGGAUUGAGCAUCA
B19: ENSG00000107863:be:win_5601|CDS|ENSG00000107863|bound_else_gene|NA|bound_elsewhere_windowed (ssRNA)
RNA: GGGAGUUCUACAGUCCGACGAUCAGGAGAAAUCGGAGAUCCCCAGACAGAGAACCCAAGCACACGAGAAAUAGCCACGACCGACACACCUUUGUCUCUUCAUUGCAACACAGGCAGUUCUUCCAGCACCUUGGCUUCAACAAACAACAGAGGAUUGAGCAUCA
B20: chr19:1925605:1925706:+|3pUTR|ENSG00000227500|msi1|FALSE|unique (ssRNA)
RNA: GGGAGUUCUACAGUCCGACGAUCUUUGGACACCCCAGGCUGCCACCCCUCCCCACCCGUUCACCCCCAGGAUGCUGUUGCUGUAGGACGCCUGCUGCCCUGGAGCCCUCCCCAGGAUGUGAGCCAGUCCCCUCGCUGGUACGGCAACAGAGGAUUGAGCAUCA
B21: chr4:137519872:137519973:-|3pUTR|ENSG00000189184|unk|FALSE|unique (ssRNA)
RNA: GGGAGUUCUACAGUCCGACGAUCAACUAUUCAUUUUUAGCUUUUGUCUCCAGUGCAUGAUCUCAUAUUUUUGCUUUUAUUUUUAGUAUAAGAACAUUUAUAAAAUCAUAUUUUUGUUACUGCAAUUGUUUUAUUUGUUGUGUGCAACAGAGGAUUGAGCAUCA
B22: chr2:159349074:159349175:-|CDS|ENSG00000123636|unk|FALSE|unique (ssRNA)
RNA: GGGAGUUCUACAGUCCGACGAUCUGGUGUGGUUACUUCUAAUAUUCCAUUUACAUCAUCUGUACCUAGUCUAGGAUCGGGGUUAGGGUUAUCAGAAGGAAAUGGUAAUUCAUUCUUGACUUCCAAUGUUGCUUCAAGUAAAAGCAACAGAGGAUUGAGCAUCA

What follows are binders tested against MSI1 full-length (mouse, UniProt Q61474 1-362) (assay: nsRBNS (natural sequence RNA bind-n-seq); RBNS binding buffer (assumed for nsRBNS): 25 mM Tris pH 7.5, 150 mM KCl, 3 mM MgCl2, 0.01% Triton X-100, 500 ug/ml BSA, 20 U/ml SUPERase-In, 4 C; UNK is unkempt and MSI1 is Musashi-1; names of the RNAs are library labels; protein concentration not given here; high values mean tight binding).
UniProt Q61474, sequence (Q61474 whole entry): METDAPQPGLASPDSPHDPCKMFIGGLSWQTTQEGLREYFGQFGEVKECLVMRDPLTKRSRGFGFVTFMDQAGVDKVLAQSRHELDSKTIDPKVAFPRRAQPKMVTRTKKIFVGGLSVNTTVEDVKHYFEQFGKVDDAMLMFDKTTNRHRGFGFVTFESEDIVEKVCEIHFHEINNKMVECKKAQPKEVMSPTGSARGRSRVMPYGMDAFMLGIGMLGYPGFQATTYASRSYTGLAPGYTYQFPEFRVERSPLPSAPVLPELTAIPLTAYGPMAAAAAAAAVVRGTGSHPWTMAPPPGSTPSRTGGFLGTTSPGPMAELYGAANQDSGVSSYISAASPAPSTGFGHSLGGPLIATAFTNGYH

Binder	binding signal [enrichment R]
B1	0.242
B2	6.83
B3	0.534
B4	0.464
B5	2.83
B6	0.36
B7	3.98
B8	0.475
B9	1.18
B10	0.495
B11	0.333
B12	0.679
B13	0.378
B14	0.471
B15	1.41
B16	0.362
B17	0.526
B18	56.8
B19	0.557
B20	0.87
B21	4.24
B22	0.385
